Molecules are shown by their SMILES. Some of the results follow.

The subject of the experiment is S. aureus RN4220. In words: growth inhibition call (relative growth <= 0.2). The note with it: 50 µM.
With `O=C(C[C@@H]1CC[C@H]2[C@@H](COC[C@H](O)CN2C(=O)c2cnccn2)O1)N1CCN(c2ccccc2)CC1`, the growth inhibition call was “inactive”.
For `C[C@@H]1CN([C@H](C)CO)C(=O)c2cc(NC(=O)CCC(F)(F)F)ccc2O[C@@H](C)CCCCO[C@@H]1CN(C)C(=O)c1ccccc1` the value was “inactive”.
In the case of `COc1ccc(cc1)CN1CC[C@]2(CC1)CN([C@H](CO)c1[nH]c3cc(ccc3c12)OC)C(=O)Nc1ccc(cc1)F`, the growth inhibition call was “inactive”.
`COc1ccc(CN(C)C[C@H]2OCCCC[C@@H](C)Oc3ccc(NC(=O)Nc4ccc(C(F)(F)F)cc4)cc3C(=O)N([C@H](C)CO)C[C@@H]2C)cc1`: the growth inhibition call was “inactive”.
In the case of `C[C@H](CO)N1C[C@H](C)[C@H](CN(C)S(=O)(=O)c2ccc(Cl)cc2)Oc2ccc(N(C)C)cc2CC1=O`, the growth inhibition call is “inactive”.
For `COc1ccc(S(=O)(=O)Nc2cccc3c2O[C@@H](CN(C)S(=O)(=O)c2cccs2)[C@@H](C)CN([C@H](C)CO)C3=O)cc1` the value was “inactive”.
In the case of `C[C@H]1CN([C@@H](C)CO)C(=O)Cc2cc(NC(=O)Nc3ccccc3)ccc2O[C@H]1CN(C)S(=O)(=O)c1cn(C)cn1` it was “inactive”; in that of `COc1ccc(NC(=O)Nc2ccc3c(c2)CC(=O)N([C@H](C)CO)C[C@@H](C)[C@@H](CN(C)Cc2ccc(C(F)(F)F)cc2)O3)cc1`, “inactive”.
In the case of `C[C@H]1CN([C@@H](C)CO)C(=O)c2cccc(NS(=O)(=O)c3cn(C)cn3)c2O[C@@H]1CN(C)CC1CC1` it was “inactive”; in that of `C[C@@H]1CN([C@H](C)CO)C(=O)Cc2cc(NC(=O)CCN3CCOCC3)ccc2O[C@@H]1CN(C)CC1CC1`, “inactive”.
Take `COC(=O)C(CC#Cc1ccc2c(c1)[C@]1(C(=O)N2)[C@H](c2ccc(O)cc2)N2[C@H](c3ccccc3)[C@H](c3ccccc3)OC(=O)[C@H]2[C@@H]1C(=O)N1CCc2cc(OC)c(OC)cc2C1)C(=O)OC`: the growth inhibition call was “inactive”.
For `COc1cc(C(=O)O)cc(OC)c1O`, the growth inhibition call is “inactive”.
On to `C[C@@H]1CN([C@H](C)CO)C(=O)c2cccc(NS(=O)(=O)c3cn(C)cn3)c2O[C@@H]1CN(C)S(=O)(=O)c1cccs1`, for which the growth inhibition call is “inactive”.
Consider `C[C@H](CO)N1C[C@H](C)[C@H](CN(C)CC2CCCCC2)Oc2ccc(NS(=O)(=O)c3cn(C)cn3)cc2C1=O`, for which the growth inhibition call is “inactive”.
For `C[C@@H]1CCCCO[C@H](CN(C)C(=O)c2ccccc2)[C@@H](C)CN([C@H](C)CO)C(=O)c2cc(NS(=O)(=O)c3ccc(Cl)cc3)ccc2O1` the value was “inactive”.
As for `C[C@@H]1CN([C@H](C)CO)C(=O)c2c(c3ccccc3n2C)-c2ccccc2CO[C@@H]1CN(C)Cc1cccc(C(=O)O)c1`, the growth inhibition call was “inactive”.
Consider `O=C(C[C@H]1C[C@@H]2c3cc(NC(=O)NC4CCCC4)ccc3O[C@@H]2[C@H](CO)O1)NCc1ccc2c(c1)OCO2`, for which the growth inhibition call is “inactive”.
For `C[C@@H]1CCCCO[C@@H](CN(C)C(=O)c2ccccc2)[C@@H](C)CN([C@H](C)CO)C(=O)c2cc(NC(=O)Nc3cccc4ccccc34)ccc2O1` the value was “inactive”; for `C[C@H](CO)N1C[C@H](C)[C@H](CN(C)S(C)(=O)=O)Oc2c(NS(=O)(=O)c3ccccc3)cccc2C1=O`, “inactive”; for `COc1cc(C2Oc3cc(C4Oc5cc(O)cc(O)c5C(=O)C4O)ccc3OC2CO)ccc1O` (stereo not given), “inactive”.
With `COc1ccc(-c2cnc3c(c2)C(=O)N([C@H](C)CO)C[C@H](C)[C@H](CN(C)S(=O)(=O)c2cccs2)O3)cc1`, the growth inhibition call is “inactive”.
In the case of `C[C@H](CO)N1C[C@H](C)[C@@H](CN(C)C(=O)Nc2ccc3c(c2)OCO3)Oc2ccc(NC(=O)Cn3cnnn3)cc2CC1=O` it was “inactive”.
In the case of `COc1ccc(S(=O)(=O)N(C)C[C@@H]2OCCCC[C@H](C)Oc3ccc(NC(=O)Nc4cccc5ccccc45)cc3C(=O)N([C@@H](C)CO)C[C@H]2C)cc1`, the growth inhibition call is “inactive”.
As to `C[C@@H]1CN([C@@H](C)CO)C(=O)c2cc(NC(=O)c3ccccc3)ccc2O[C@@H](C)CCCCO[C@H]1CN(C)Cc1ccccc1`, the growth inhibition call is “inactive”.
In the case of `COc1ccc(S(=O)(=O)N(C)C[C@@H]2OCCCC[C@@H](C)Oc3ccc(NS(=O)(=O)c4cn(C)cn4)cc3C(=O)N([C@@H](C)CO)C[C@H]2C)cc1` it was “inactive”; in that of `Cc1ccc(S(=O)(=O)N(C)C[C@H]2Oc3ccc(NC(=O)Nc4ccc(C(F)(F)F)cc4)cc3C(=O)N([C@H](C)CO)C[C@@H]2C)cc1`, “inactive”.
In the case of `Cc1cc(C(=O)Nc2cccc3c2O[C@@H](CN(C)S(=O)(=O)c2cccs2)[C@@H](C)CN([C@H](C)CO)C3=O)n(C)n1`, the growth inhibition call was “inactive”.
With `C[C@@H]1CN([C@H](C)CO)C(=O)c2cc(NC(=O)Cc3ccccc3)ccc2O[C@@H](C)CCCCO[C@H]1CN(C)C(=O)Nc1ccc2c(c1)OCO2`, the growth inhibition call was “inactive”.
For `COc1ccc(S(=O)(=O)N(C)C[C@H]2Oc3ccc(NC(=O)CCN4CCOCC4)cc3CC(=O)N([C@H](C)CO)C[C@H]2C)cc1` the value was “inactive”.
In the case of `COc1ccccc1-c1ccc2c(c1)O[C@@H](CN(C)C(=O)c1cccnc1)[C@@H](C)CN([C@H](C)CO)S2(=O)=O` it was “inactive”.
Take `CC1(C)OC2CC3C4CC(F)C5=CC(=O)C=CC5(C)C4(F)C(O)CC3(C)C2(C(=O)CO)O1` (stereo not given): the growth inhibition call was “inactive”.
In the case of `Cc1noc(C)c1S(=O)(=O)N(C)C[C@@H]1Oc2ccc(NC(=O)Cn3cnnn3)cc2CC(=O)N([C@H](C)CO)C[C@H]1C` it was “inactive”.
In the case of `O=C(O)C[C@H]1Nc2ccccc2NC1=O` it was “inactive”.
For `C[C@H](CO)N1C[C@H](C)[C@H](CN(C)C(=O)c2ccccc2)OCCCC[C@H](C)Oc2ccc(NC(=O)C3CCCCC3)cc2C1=O` the value was “inactive”; for `C[C@@H]1CCCCO[C@@H](CN(C)Cc2ccccc2)[C@H](C)CN([C@H](C)CO)C(=O)c2cc(NC(=O)CCC(F)(F)F)ccc2O1`, “inactive”.
As for `C[C@@H]1CN([C@H](C)CO)C(=O)c2cc(NC(=O)C3CC3)ccc2O[C@@H]1CN(C)Cc1ccc(C(=O)O)cc1`, the growth inhibition call is “inactive”.
As to `C[C@@H]1CCCCO[C@@H](CN(C)C(=O)Nc2ccc(F)cc2)[C@@H](C)CN([C@H](C)CO)C(=O)c2cc(NC(=O)Nc3ccc(F)cc3)ccc2O1`, the growth inhibition call is “inactive”.
As for `COc1cccc(S(=O)(=O)N[C@H]2CC[C@H](CC(=O)NC3CCC3)O[C@@H]2CO)c1`, the growth inhibition call is “inactive”.
For `O=C(C[C@@H]1CC[C@@H]2[C@H](COC[C@H](O)CN2S(=O)(=O)c2ccccc2)O1)NCc1ccc2c(c1)OCO2` the value was “inactive”.
In the case of `C[C@@H]1CN([C@H](C)CO)C(=O)c2cc(NC(=O)Nc3ccc(C(F)(F)F)cc3)ccc2O[C@@H](C)CCCCO[C@@H]1CN(C)C(=O)CCCN(C)C`, the growth inhibition call is “inactive”.

For the origin of these results see the antibiotic and cytotoxicity screens of Wong et al. (2023).
